# Source: the supplement of paper PMC8728848
# Some of the results follow.
# B1: E-Selectin (Mus musculus), Q00690 (protein)
# chain: MNASRFLSALVFVLLAGESTAWYYNASSELMTYDEASAYCQRDYTHLVAIQNKEEINYLNSNLKHSPSYYWIGIRKVNNVWIWVGTGKPLTEEAQNWAPGEPNNKQRNEDCVEIYIQRTKDSGMWNDERCNKKKLALCYTASCTNASCSGHGECIETINSYTCKCHPGFLGPNCEQAVTCKPQEHPDYGSLNCSHPFGPFSYNSSCSFGCKRGYLPSSMETTVRCTSSGEWSAPAPACHVVECEALTHPAHGIRKCSSNPGSYPWNTTCTFDCVEGYRRVGAQNLQCTSSGIWDNETPSCKAVTCDAIPQPQNGFVSCSHSTAGELAFKSSCNFTCEQSFTLQGPAQVECSAQGQWTPQIPVCKAVQCEALSAPQQGNMKCLPSASGPFQNGSSCEFSCEEGFELKGSRRLQCGPRGEWDSKKPTCSAVKCDDVPRPQNGVMECAHATTGEFTYKSSCAFQCNEGFSLHGSAQLECTSQGKWTQEVPSCQVVQCPSLDVPGKMNMSCSGTAVFGTVCEFTCPDDWTLNGSAVLTCGATGRWSGMPPTCEAPVSPTRPLVVALSAAGTSLLTSSSLLYLLMRYFRKKAKKFVPASSCQSLQSFENYHVPSYNV
# What was measured:
# Assay in all cases: glycan array binding signal (z-score within array); higher = stronger binding
# Settings in all cases: glycan notation: IUPAC condensed, linker removed
# Fuc(a1-2)Gal = target: Fuc(a1-2)Gal
# Procedure, shortened: (§1)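 Columns mapping to the same glycan were averaged after glycan names were converted to IUPAC-condensed notation. The data come from 3228 arrays in the Consortium for Functional Glycomics database, limited to those with an available protein sequence. Binding is reported as a within-array Z-score averaged across arrays of one protein sequence and across linkers.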
# Fuc(a1-2)Gal(b1-3)GalNAc = target: Fuc(a1-2)Gal(b1-3)GalNAc
# Procedure, shortened: as §1
# [1] = target: Fuc(a1-2)Gal(b1-3)GalNAc(b1-3)Gal
# Procedure, shortened: as §1
# [2] = target: Fuc(a1-2)Gal(b1-3)GalNAc(b1-3)Gal(a1-4)Gal(b1-4)Glc
# Procedure, shortened: as §1
# [3] = target: Fuc(a1-2)Gal(b1-3)GalNAc(b1-4)[Neu5Ac(a2-3)]Gal(b1-4)Glc
# Procedure, shortened: as §1
# Fuc(a1-2)Gal(b1-3)GlcNAc = target: Fuc(a1-2)Gal(b1-3)GlcNAc
# Procedure, shortened: as §1
# [4] = target: Fuc(a1-2)Gal(b1-3)GlcNAc(b1-3)Gal(b1-4)Glc
# Procedure, shortened: as §1
# [5] = target: Fuc(a1-2)Gal(b1-3)[Fuc(a1-4)]GlcNAc
# Procedure, shortened: as §1
# Fuc(a1-2)Gal(b1-4)Glc = target: Fuc(a1-2)Gal(b1-4)Glc
# Procedure, shortened: as §1
# Fuc(a1-2)Gal(b1-4)Glc6S = target: Fuc(a1-2)Gal(b1-4)Glc6S
# Procedure, shortened: as §1
# Fuc(a1-2)Gal(b1-4)GlcNAc = target: Fuc(a1-2)Gal(b1-4)GlcNAc
# Procedure, shortened: as §1
# [6] = target: Fuc(a1-2)Gal(b1-4)GlcNAc(b1-3)Gal(b1-4)GlcNAc
# Procedure, shortened: as §1
# [7] = target: Fuc(a1-2)Gal(b1-4)GlcNAc(b1-3)Gal(b1-4)GlcNAc(b1-3)Gal(b1-4)GlcNAc
# Procedure, shortened: as §1
# [8] = target: Fuc(a1-2)Gal(b1-4)GlcNAc6S
# Procedure, shortened: as §1
# [9] = target: Fuc(a1-2)Gal(b1-4)[Fuc(a1-3)]GlcNAc
# Procedure, shortened: as §1
# [10] = target: Fuc(a1-2)Gal(b1-4)[Fuc(a1-3)]GlcNAc(b1-3)Gal(b1-4)[Fuc(a1-3)]GlcNAc
# Procedure, shortened: as §1
# [11] = target: Fuc(a1-2)Gal(b1-4)[Fuc(a1-3)]GlcNAc(b1-3)Gal(b1-4)[Fuc(a1-3)]GlcNAc(b1-3)Gal(b1-4)[Fuc(a1-3)]GlcNAc
# Procedure, shortened: as §1
# Fuc(a1-2)Gal6S(b1-4)Glc = target: Fuc(a1-2)Gal6S(b1-4)Glc
# Procedure, shortened: as §1
# [12] = target: Fuc(a1-2)Gal6S(b1-4)Glc6S
# Procedure, shortened: as §1
# [13] = target: Fuc(a1-2)Gal6S(b1-4)GlcNAc
# Procedure, shortened: as §1
# Fuc(a1-2)GlcNAc = target: Fuc(a1-2)GlcNAc
# Procedure, shortened: as §1
# Fuc(a1-2)[Gal(a1-3)]Gal = target: Fuc(a1-2)[Gal(a1-3)]Gal
# Procedure, shortened: as §1
# [14] = target: Fuc(a1-2)[Gal(a1-3)]Gal(b1-3)GlcNAc
# Procedure, shortened: as §1
# [15] = target: Fuc(a1-2)[Gal(a1-3)]Gal(b1-4)Glc
# Procedure, shortened: as §1
# [16] = target: Fuc(a1-2)[Gal(a1-3)]Gal(b1-4)GlcNAc
# Procedure, shortened: as §1
# [17] = target: Fuc(a1-2)[Gal(a1-3)]Gal(b1-4)[Fuc(a1-3)]GlcNAc
# Procedure, shortened: as §1
# [18] = target: Fuc(a1-2)[Gal(a1-4)]Gal(b1-4)GlcNAc
# Procedure, shortened: as §1
# [19] = target: Fuc(a1-2)[GalNAc(a1-3)]Gal
# Procedure, shortened: as §1
# [20] = target: Fuc(a1-2)[GalNAc(a1-3)]Gal(b1-3)GlcNAc
# Procedure, shortened: as §1
# [21] = target: Fuc(a1-2)[GalNAc(a1-3)]Gal(b1-4)Glc
# Procedure, shortened: as §1
binder,measurement,setting,value
B1,glycan array binding signal (z-score),Fuc(a1-2)Gal,-0.286
same,glycan array binding signal (z-score),Fuc(a1-2)Gal(b1-3)GalNAc,-0.324
same,glycan array binding signal (z-score),[1],-0.298
same,glycan array binding signal (z-score),[2],-0.186
same,glycan array binding signal (z-score),[3],-0.301
same,glycan array binding signal (z-score),Fuc(a1-2)Gal(b1-3)GlcNAc,-0.312
same,glycan array binding signal (z-score),[4],-0.289
same,glycan array binding signal (z-score),[5],1.34
same,glycan array binding signal (z-score),Fuc(a1-2)Gal(b1-4)Glc,-0.252
same,glycan array binding signal (z-score),Fuc(a1-2)Gal(b1-4)Glc6S,-0.186
same,glycan array binding signal (z-score),Fuc(a1-2)Gal(b1-4)GlcNAc,-0.339
same,glycan array binding signal (z-score),[6],-0.345
same,glycan array binding signal (z-score),[7],-0.255
same,glycan array binding signal (z-score),[8],-0.158
same,glycan array binding signal (z-score),[9],1.22
same,glycan array binding signal (z-score),[10],0.625
same,glycan array binding signal (z-score),[11],0.391
same,glycan array binding signal (z-score),Fuc(a1-2)Gal6S(b1-4)Glc,-0.22
same,glycan array binding signal (z-score),[12],-0.213
same,glycan array binding signal (z-score),[13],-0.273
same,glycan array binding signal (z-score),Fuc(a1-2)GlcNAc,-0.342
same,glycan array binding signal (z-score),Fuc(a1-2)[Gal(a1-3)]Gal,-0.265
same,glycan array binding signal (z-score),[14],-0.355
same,glycan array binding signal (z-score),[15],-0.336
same,glycan array binding signal (z-score),[16],-0.317
same,glycan array binding signal (z-score),[17],-0.324
same,glycan array binding signal (z-score),[18],-0.29
same,glycan array binding signal (z-score),[19],-0.217
same,glycan array binding signal (z-score),[20],-0.359
same,glycan array binding signal (z-score),[21],-0.349
